The campaign covered roughly 410,000 compounds. About 6,400 (1.6%) were called active. Inconclusive results, whose numbers are uncertain, are shown with a selection of clear calls. The call rests on the fitted dose curve; in most records, active means well fitted inhibition curve with a large enough effect; inconclusive means small, poorly fitted or top-dose-only effect; inactive means no such curve, though single readings can be large or run the other way. Potencies of inconclusive entries are doubtful fits and often do not repeat.
Each molecule was assayed against Glucagon-like peptide 1 receptor (Homo sapiens) (UniProt P43220) (assay: qHTS of GLP-1 Receptor Inverse Agonists (Inhibition Mode)). Details: HEK293 GLP-1R CRE-luciferase, luminescence, 24 h, GLP-1R form is constitutively active; activity change, negative = inhibition: at 38.3 µM (top of the series) unless noted.
Sequence of UniProt P43220 (P43220 whole entry, looked up): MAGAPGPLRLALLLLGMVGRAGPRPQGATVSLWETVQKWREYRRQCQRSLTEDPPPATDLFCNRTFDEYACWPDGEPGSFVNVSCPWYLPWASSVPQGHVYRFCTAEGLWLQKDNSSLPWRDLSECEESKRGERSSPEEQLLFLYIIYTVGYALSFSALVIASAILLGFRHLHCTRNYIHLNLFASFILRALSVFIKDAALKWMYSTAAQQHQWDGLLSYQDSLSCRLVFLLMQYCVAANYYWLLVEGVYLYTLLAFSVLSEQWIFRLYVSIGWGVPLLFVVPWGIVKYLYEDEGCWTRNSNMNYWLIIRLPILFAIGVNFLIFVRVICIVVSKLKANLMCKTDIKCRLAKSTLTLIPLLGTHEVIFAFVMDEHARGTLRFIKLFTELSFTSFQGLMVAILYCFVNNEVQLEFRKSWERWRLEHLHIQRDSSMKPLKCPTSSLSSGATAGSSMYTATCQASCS
How it was run: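 Using stably transfected HEK293 (constitutively active GLP-1R, cAMP-luciferase reporter), compounds were incubated 24 hr and luciferase measured by luminescence.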
Further: nearly all actives have a fitted effect of over 55% in size.
On the % scale 0 is the no-effect control and ±100 the full control effect; potency means the concentration at half of the fitted maximal effect; tags describe the fitted curve by direction and shape.

Potency, inactive:
Cc1cc(C)nc(NS(=O)(=O)c2ccc(NC(=O)c3ccccc3O)cc2)n1
CCOC(=O)N1N=C(C)CC1(O)c1ccc(Cl)cc1 (stereo not drawn)
CCc1ccc2ncc(S(=O)(=O)c3ccc(Cl)cc3)c(N3CCN(CC)CC3)c2c1
COc1ccccc1NC(=S)NN=C(C)c1ccccn1
COc1ccccc1C(=O)NCCn1cc(SCC(=O)Nc2nnc(C)s2)c2ccccc21
COCCNC(=O)c1ccc2c(=O)n(CCOC)c(=O)[nH]c2c1
CC1CCc2nc3ncn(Cc4ccc(Cl)cc4)c(=O)c3cc2C1 (stereo not drawn)
Cc1ccc(C)c(NC(=O)CN2C(=O)C3(SCC(=O)N3c3ccc(C)c(C)c3)c3ccccc32)c1 (stereo not drawn)
Cn1cccc1CNC(=S)Nc1ccccc1Cl
O=C(N/N=C/c1cc2c(cc1Cl)OCO2)c1cccc(Br)c1
O=C(Cn1nc(-c2ccccc2)c2cnc3ccccc3c21)Nc1ccccc1
CC1=C(C(=O)Nc2cccnc2)C(c2ccccc2)n2nc(SCc3ccccc3)nc2N1 (stereo not drawn)
CCN(CC)CCNc1ccnc2cc(Cl)ccc12
CCn1c(=O)c(-c2nc3ccccc3[nH]2)c(O)c2ccccc21
Cc1nc2sccn2c(=O)c1S(=O)(=O)N1CCN(c2ccccc2)CC1
Cc1onc(-c2ccccc2)c1C(=O)NC(=S)Nc1sc2c(c1C#N)CCCC2
CC(=O)Nc1sc2c(c1C(c1cccs1)N1CCOCC1)CCCC2 (stereo not drawn)
CCOc1ccc2c(c1)C(C)=CC(C)(C)N2
CCC(=O)N1CCc2cc(S(=O)(=O)NCCC(=O)Nc3cc(C)cc(C)c3)ccc21
COc1ccc(C(=O)N/N=C(\C)Cn2nc([N+](=O)[O-])cc2C)cc1
COc1ccccc1CCN1COc2c(cc3c(C)c(C)c(=O)oc3c2C)C1

Potency, inconclusive:
O=[N+]([O-])c1ccccc1Oc1cnc2ccccc2n1 10 µM [inhibitor, partial curve]
Cc1nc(Nc2ccc(Cl)c(Cl)c2)sc1C(=O)Nc1ccccc1 3.98 µM [inhibitor, partial curve, poor fit]
COCCNC(=O)/C(C#N)=C/c1cccc(OCc2ccccc2)c1 5.62 µM [inhibitor, full curve, poor fit]
Cc1cccc(OCCn2nnc3ccccc32)c1C 28.2 µM [inhibitor, single point]
CC1(C(=O)Nc2cccc(NS(C)(=O)=O)c2)CCN1Cc1ccccc1OC(F)F (stereo not drawn) 10 µM [inhibitor, partial curve, poor fit]
Cc1ccc(C(=O)N[C@@H](C)CN2C3=NC[C@H](C(C)C)N3C[C@H]2Cc2ccc(O)cc2)cc1Br 22.4 µM [inhibitor, single point]
O=C(NC(=S)Nc1ccccc1N1CCCC1)c1cccs1 7.94 µM [inhibitor, partial curve, poor fit]
O=C(Cc1nc2ccccc2[nH]1)c1cccc([N+](=O)[O-])c1 28.2 µM [inhibitor, single point]
CCCC(=O)Nc1cc(S(=O)(=O)N(CC)CC)ccc1Cl 15.8 µM [inhibitor, single point]
Cc1cc(N2CCOCC2)nc2ccc(NC(=O)CCC(=O)N3CCN(c4ccccc4F)CC3)cc12 10 µM [inhibitor, single point]
CC(C)C[C@H](NC(=O)c1nc[nH]c1C(=O)N1CCc2ccccc2C1)C(=O)OC(C)(C)C 22.4 µM [inhibitor, single point]
O=C(CCNC(=O)c1ccc(Cl)cc1)NCc1cccc(C(F)(F)F)c1 22.4 µM [inhibitor, partial curve, poor fit]
Cc1cc(NC(=O)c2oc3ccccc3c2C)ccc1-n1cnnn1 1.41 µM [inhibitor, full curve]
CCCCOc1ccc(C(=O)Nc2ccc(S(=O)(=O)Nc3nc(C)cc(C)n3)cc2)cc1 11.2 µM [inhibitor, single point]
CC(C)Sc1nnc([C@H](Cc2ccccc2)NC(=O)OC(C)(C)C)o1 15.8 µM [inhibitor, single point]
CCOc1ccc(NS(=O)(=O)c2ccc(C(=O)NCC(c3ccc(OC)cc3)N3CCCC3)cc2)cc1 (stereo not drawn) 10 µM [inhibitor, partial curve, poor fit]
CCCCC1CCC(C(=O)OC(C)C(=O)Nc2ccc(NC(C)=O)cc2)CC1 (stereo not drawn) 28.2 µM [inhibitor, single point]
CC(Nc1nc(-c2ccc(Cl)cc2)cs1)c1nc2cc(Cl)c(N3CCCCC3)cc2n1CCOCCO (stereo not drawn) 14.1 µM [inhibitor, single point]
Cc1cccc(N2CCN(C(=O)Cn3ccc4ccccc4c3=O)CC2)c1C 11.2 µM [inhibitor, partial curve, poor fit]
CC(C)OC(=O)c1nnn(-c2nonc2N)c1CSc1ccccn1 28.2 µM [inhibitor, single point]
CCOC(=O)c1cnc2c(OC)cccc2c1N1CCN(c2ccccc2OC)CC1 14.1 µM [inhibitor, single point]
CCO[C@@H]1OC(C(=O)N2CCOCC2)=C[C@H](c2ccc(C(F)(F)F)cc2)[C@H]1CCCO 10 µM [inhibitor, single point]
Cc1ccc(S(=O)(=O)Nc2ccccc2OC(C(=O)OC(C)(C)C)C(=O)OC(C)(C)C)cc1 28.2 µM [inhibitor, single point]
O=C(CSc1nnc(CNc2ccc(F)cc2)o1)c1ccccc1 11.2 µM [inhibitor, partial curve, poor fit]
COc1cc(CCc2ccccc2)c(C(=O)O)c(O)c1C/C=C(/C)CCC=C(C)C 11.2 µM [inhibitor, partial curve, poor fit]
O=C(NCc1cccnc1)c1ccc(COc2cccc3ccccc23)o1 28.2 µM [inhibitor, single point]
Cc1ccc(N2CCN(C(=O)c3cccs3)CC2)c(C)c1 31.6 µM [inhibitor, single point]
CCC1(C)Cc2c(sc3nnn(Cc4ccccc4Cl)c(=O)c23)CO1 (stereo not drawn) 10 µM [inhibitor, partial curve]
COc1ccc(/C=N/OCC(=O)NC(c2ccccc2)c2ccccc2)cc1OC 28.2 µM [inhibitor, single point]
Cn1c(=N)n(CC(=O)c2ccc(Br)cc2)c2ccccc21 10 µM [inhibitor, single point]
O=C(Nc1cccc(F)c1)N1CC=C(c2ccc(Cl)cc2)CC1 28.2 µM [inhibitor, single point]
CCN(CC)c1ccc(NC(=O)CN2CCN(c3ccccc3OC)CC2)cc1 10 µM [inhibitor, single point]
CS(=O)(=O)c1ccc(Sc2nc3ccccc3s2)c([N+](=O)[O-])c1 25.1 µM [inhibitor, single point]
CCn1c2ccccc2c2cc(NC(=O)COC(=O)c3ccccc3Br)ccc21 20 µM [inhibitor, single point]
COc1ccccc1N=NC1C(=O)N(C(N)=S)N=C1C (stereo not drawn) 17.8 µM [inhibitor, single point]
COc1ccc2sc(-c3ccccc3OC)c(C#CC(C)(C)O)c2c1 14.1 µM [inhibitor, single point]
CCN(CC)CCCNC(=O)CSc1nc2c(c(C(F)(F)F)n1)CCc1ccccc1-2 12.6 µM [inhibitor, partial curve, poor fit]
Cc1cc(C)cc(NC(=O)CSc2ccc(-c3ccco3)nn2)c1 28.2 µM [inhibitor, single point]
C/C(=N\N=C1\NC(=O)C(Cc2ccccc2)S1)c1ccccc1 (stereo not drawn) 14.1 µM [inhibitor, single point]
COC(=O)/C=C\C(=O)Nc1cccc([N+](=O)[O-])c1 14.1 µM [inhibitor, partial curve, poor fit]
C#CCOc1ccccc1CNc1ccccc1 28.2 µM [inhibitor, single point]
COc1ccc(N2CCN(C(c3nnnn3CCc3ccccc3)C(C)C)CC2)cc1 (stereo not drawn) 12.6 µM [inhibitor, single point]
COc1ccc(N(C)S(=O)(=O)c2cccc(C(=O)NCC(c3ccco3)N3CCCC3)c2)cc1 (stereo not drawn) 12.6 µM [inhibitor, single point]
CCC(C)c1ccccc1N1CC(C(=O)Nc2ccc(C)c(S(=O)(=O)N3CCOCC3)c2)CC1=O (stereo not drawn) 28.2 µM [inhibitor, single point]

Potency, active:
COc1ccc(/C=N/Nc2ncnc3sc4c(c23)CCCC4)cc1O 10 µM

Activity change, negative = inhibition, inactive:
CCOC(=O)C1(CCc2ccccc2)CCN(C2Cc3ccccc3C2)CC1 -26.2% [at 7.66 µM]
O=C(CCC(=O)N/N=C/c1cc(Cl)cc(Cl)c1O)NCc1ccccc1 -22.2% [at 7.66 µM]

Reference: PubChem BioAssay AID624417 (National Center for Advancing Translational Sciences (NCATS), 2012)
